#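 Five concentrations, 48 hours, 96-well plates. GI50 marks 50% less growth.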 Activity calls are given as the source filed them. Cut-off read from the data, not from the text of the source: active = GI50 up to about 1.1 µM and inactive = higher.
# Test system: NCI-H322M
# Test: growth of human tumour cells (NCI), 48 h
row,Structure (SMILES),GI50
1,O=C1C(c2ccc([N+](=O)[O-])cc2)=[N+]([O-])c2ccc([N+](=O)[O-])cc21,inactive: > 100 µM
2,N#Cc1ccccc1/C=N/O,inactive: > 100 µM
3,O=c1cc2oc3ccc4ccccc4c3cc-2c(=O)[nH]1,inactive: 14.9 µM
4,O=C1NC(=S)S/C1=C/c1ccco1,inactive: > 100 µM
5,CCN1CC2(C)CC[C@@H](OC)C34[C@@H]2[C@H](OC(C)=O)C2(OCO[C@@]25C[C@H](OC)C2C[C@]3(O)[C@@H]5[C@H]2O)[C@H]14,inactive: > 100 µM
6,O=C1CNc2cc(N3CCOCC3)ccc2N1,inactive: > 100 µM
7,O=C1C(c2ccc(C3=[N+]([O-])c4cc([N+](=O)[O-])ccc4C3=O)cc2)=[N+]([O-])c2cc([N+](=O)[O-])ccc21,inactive: > 10 µM
8,O=C(/C=C1/NC(=O)CS1)Nc1ccccc1,inactive: 36.1 µM
9,O=C(O)C/C(=C\c1ccccc1)C(=O)O,inactive: > 100 µM
10,Cc1ccc(C(=N)c2ccccc2Cc2cccc3ccccc23)c2ccccc12,inactive: > 100 µM
11,NC(=O)c1ccc(N)nc1 [6-AMINONICOTINAMIDE],inactive: 28.3 µM
12,O=C1CC2OCC=C3CN4CCC56c7ccccc7N1C5C2C3CC46O (stereo not given),inactive: > 100 µM
13,Cc1ccc(S(=O)(=O)OC2C(C3COC(C)(C)O3)OC3OC(C)(C)OC32)cc1 (stereo not given),inactive: > 100 µM
14,O=C(Nc1ccn(C2CC(O)C(CO)O2)c(=O)n1)c1ccccc1 (stereo not given),inactive: > 100 µM
15,C=C1C(=O)O[C@H]2C(=O)[C@H](C)CCC[C@@](C)(O)/C=C\C[C@@]3(C)O[C@@H]3C[C@@H]12,inactive: 35.9 µM
16,O=c1c(O)c(-c2cc(O)c(O)c(O)c2)oc2cc(O)cc(O)c12 [MYRICETIN],inactive: 30.2 µM
17,CN1CCN([C@H]2C[C@H]3[C@@H]4CC=C5C[C@@H](O)CC[C@]5(C)[C@H]4CC[C@]3(C)[C@H]2O)CC1,inactive: > 45.4 µM
18,O=C(O)c1ccccc1-c1ccccc1C(=O)Nc1ccc2c(c1)Cc1cc(F)ccc1-2,inactive: 24.3 µM
19,O=S(=O)(N1CCCCN(S(=O)(=O)C(F)(F)F)CCCN(S(=O)(=O)C(F)(F)F)CCCN(S(=O)(=O)C(F)(F)F)CCCCN(S(=O)(=O)C(F)(F)F)CCCN(S(=O)(=O)C(F)(F)F)CCC1)C(F)(F)F,inactive: > 100 µM
20,O=S(=O)(/N=C(\NO)Nc1ccc(Cl)cc1)C1CC=C(c2ccon2)S1 (stereo not given),inactive: 46.1 µM
21,O=C1/C(=C/c2ccccc2[N+](=O)[O-])N=C(c2ccccc2)N1c1nc2ccccc2s1,inactive: 37.4 µM
22,C/C(=N\NC(=N)N)C(CN1CCCCC1)C(c1ccccc1)c1c(O)c2ccccc2oc1=O (stereo not given),inactive: > 100 µM
23,COC(=O)CCC(C)[C@H]1CCC2C3C(C[C@H](OC(C)=O)[C@@]21C)[C@@]1(C)CCC2(C[C@H]1C[C@H]3OC(C)=O)OOC1(CCCCC1)OO2 (stereo not given in full),inactive: > 100 µM
24,CCOC(=O)C(NC(=O)c1ccco1)(Nc1nc2ccc(OCC)cc2s1)C(F)(F)F (stereo not given),inactive: 72.4 µM
25,CN1COc2c(n(C)c(=O)[nH]c2=O)C1,inactive: > 100 µM
26,CCC1OC2C(CC=C(C)C)=C3OC(C)(O)C(C)(CC)C(OC(C)=O)C3=C3OC(=O)C=C1C32 (stereo not given),inactive: 30.1 µM
27,CCN(CC)c1cccc2c1C1(O)CCC3(CC21)OCCCCO3 (stereo not given),inactive: > 100 µM
28,Cc1ccc(/N=C2/C(c3ccccc3)=C(SC3=C(c4ccccc4)/C(=N/c4ccc(C)cc4)c4ccccc43)c3ccccc32)cc1,inactive: 48 µM
29,C=CCCC1CCCCC/C1=N\N(C)C (stereo not given),inactive: > 100 µM
30,COc1cc(/C=C/C(=O)N[C@@H]2C(=O)N3[C@@H]2SC(C)(C)[C@@H]3C(=O)O)cc(OC)c1OC,inactive: > 100 µM

# From ChEMBL document CHEMBL1201862, “PubChem BioAssay data set” (2004)
